We go through 11 variants from the supplement of paper PMC12217912.

The list shows a part of the results. Sequences were assembled here from the parent chain. Inactive controls read about 0.05.

B1: TEV protease; numbered along this chain (parent)
chain: MGESLFKGPRDYNPISSSICHLTNESDGHTTSLYGIGFGPFIITNKHLFRRNNGTLVVQSLHGVFKVKDTTTLQQHLVDGRDMIIIRMPKDFPPFPQKLKFREPQREERICLVTTNFQTKSMSSMVSDTSCTFPSGDGIFWKHWIQTKDGQCGSPLVSTRDGFIVGIHSASNFTNTNNYFTSVPKNFMELLTNQEAQQWVSGWRLNADSVLWGGHKVFMVKPEEPFQPVKEATQL
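Also: Bxb1 expression induced with 0.2% (w/v) L-rhamnose at OD600 near 0.5, cultures sampled hourly, flipped fraction per protease–substrate barcode pair counted by paired-end Illumina sequencing.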

Variants of B1 are the subject of the assay. Description: raw area under fraction-flipped curve 0-4 h after induction (AUC4h, not background-subtracted), DNA-recorder readout of cleavage of the substrate (dimensionless); higher = more cleavage of the substrate by the protease variant. Conditions: temperature: 34 °C; time window: 0-4 h after rhamnose induction. How it is done: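 In vivo DNA recorder in E. coli TOP10(DE3) ΔrhaA at 34 °C. Each TEVp single-site mutant (parent TEVp 0) is paired with a single-site variant of the 7-mer TEVs (canonical ENLYFQ|S). The substrate sits between flexible linkers in a Bxb1-sfGFP-TEVs-SsrA fusion, so cleavage stabilises Bxb1 and speeds flipping of a recombination array, read by NGS. The value is the raw area under the fraction-flipped curve over 0-4 h after rhamnose induction (AUC4h), with ≥20 reads per time point. It is not background-subtracted; inactive controls average about 0.047.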
Take MGESLFKGPRDYNPISSSICHLTNESDGHTTSLYGIGFGPFIITNKHLFRRNNGTLVVQSLHGVFKVKDTTTLQQHLVDGRDMIIIRMPKDFPPFPQKLKFREPQREERICLVTTNFQTKSMSSMVSDTSCTFPSGDGIFWKHWIQTKDGQCGSPLVSTRDGFIVGIHSASNFTNTNNYFTSVPKNFMELLTNQEAQQWVSGWRLNADSVLAGGHKVFMVKPEEPFQPVKEATQL [W212A]: the “area with substrate ENLYFES” value came out at 0.0491, the “area with substrate ENLYFMS” value amounted to 0.051 and the “area with substrate ENLYFYS” value is 0.0614.
Turning to MGESLFKGPRDYNPISSSICHLTNESDGHTTSLYGIGFGPFIITNKHLFRRNNGTLVVQSLHGVFKVKDTTTLQQHLVDGRDMIIIRMPKDFPPFPQKLKFREPQREERICLVTTNFQTKSMSSMVSDTSCTFPSGDGIFWKHWIQTKDGQCGSPLVSTRDGFIVGIHSASNFTNTNNYFTSVPKNFMELLTNQEAQQWVSGWRLNADSVLNGGHKVFMVKPEEPFQPVKEATQL [W212N], the “area with substrate ENLYFES” value stood at 0.0788, the “area with substrate ENLYFIS” value came out at 0.0552 and the “area with substrate ENLYFWS” value amounted to 0.0495.
Take MGESLFKGPRDYNPISSSICHLTNESDGHTTSLYGIGFGPFIITNKHLFRRNNGTLVVQSLHGVFKVKDTTTLQQHLVDGRDMIIIRMPKDFPPFPQKLKFREPQREERICLVTTNFQTKSMSSMVSDTSCTFPSGDGIFWKHWIQTKDGQCGSPLVSTRDGFIVGIHSASNFTNTNNYFTSVPKNFMELLTNQEAQQWVSGWRLNADSVLSGGHKVFMVKPEEPFQPVKEATQL [W212S]: the “area with substrate ENLYFDS” value amounted to 0.0674, the “area with substrate ENLYFIS” value worked out at 0.0501, the “area with substrate ENLYFKS” value came to 0.0466 and the “area with substrate ENLYFPS” value was determined as 0.0607. In addition, the “area with substrate ENLYFSS” value is 0.0887 and the “area with substrate ENLYFVS” value was determined as 0.0436.
Turning to MGESLFKGPRDYNPISSSICHLTNESDGHTTSLYGIGFGPFIITNKHLFRRNNGTLVVQSLHGVFKVKDTTTLQQHLVDGRDMIIIRMPKDFPPFPQKLKFREPQREERICLVTTNFQTKSMSSMVSDTSCTFPSGDGIFWKHWIQTKDGQCGIPLVSTRDGFIVGIHSASNFTNTNNYFTSVPKNFMELLTNQEAQQWVSGWRLNADSVLWGGHKVFMVKPEEPFQPVKEATQL [S154I], the “area with substrate ENLYFES” value was 0.0669, the “area with substrate ENLYFFS” value was found to be 0.0746, the “area with substrate ENLYFGS” value stood at 0.0601 and the “area with substrate ENLYFHS” value came to 0.0636. Moreover, the “area with substrate ENLYFKS” value was found to be 0.0649, the “area with substrate ENLYFLS” value was determined as 0.0682, the “area with substrate ENLYFNS” value came to 0.071 and the “area with substrate ENLYFSS” value is 0.101.
Take MGESLFKGPRDYNPGSSSICHLTNESDGHTTSLYGIGFGPFIITNKHLFRRNNGTLVVQSLHGVFKVKDTTTLQQHLVDGRDMIIIRMPKDFPPFPQKLKFREPQREERICLVTTNFQTKSMSSMVSDTSCTFPSGDGIFWKHWIQTKDGQCGSPLVSTRDGFIVGIHSASNFTNTNNYFTSVPKNFMELLTNQEAQQWVSGWRLNADSVLWGGHKVFMVKPEEPFQPVKEATQL [I15G]: the “area with substrate ENLYFDS” value was found to be 0.043, the “area with substrate ENLYFES” value came to 0.0652, the “area with substrate ENLYFHS” value is 0.0664 and the “area with substrate ENLYFIS” value is 0.0503. The “area with substrate ENLYFKS” value was 0.0341, the “area with substrate ENLYFMS” value came to 0.054, the “area with substrate ENLYFNS” value is 0.0642 and the “area with substrate ENLYFPS” value was 0.0707. In addition, the “area with substrate ENLYFRS” value is 0.0692, the “area with substrate ENLYFTS” value was found to be 0.0505, the “area with substrate ENLYFVS” value was 0.0528 and the “area with substrate ENLYFWS” value amounted to 0.051. The “area with substrate ENLYFYS” value is 0.0371.
As to MGESLFKGPRDYNPISSSICHLTNESDGHTTSLYGIGFGPFIITNKHLFRRNNGTLVVQSLHGVFKVKDTTTLQQHLVDGRDMIIIRMPKDFPPLPQKLKFREPQREERICLVTTNFQTKSMSSMVSDTSCTFPSGDGIFWKHWIQTKDGQCGSPLVSTRDGFIVGIHSASNFTNTNNYFTSVPKNFMELLTNQEAQQWVSGWRLNADSVLWGGHKVFMVKPEEPFQPVKEATQL [F95L], the “area with substrate ENLYFDS” value is 0.046, the “area with substrate ENLYFGS” value came to 0.0821, the “area with substrate ENLYFHS” value was 0.0827 and the “area with substrate ENLYFIS” value was 0.0514. In addition, the “area with substrate ENLYFKS” value amounted to 0.068.
For MGESLFKGPRDYNPISSSICHLTNESDGHTTSLYGIGFGPFIITNKHLFRRNNGTLVVQSLHGVFKVKDTTTLQQHLVDGRDMIIIRMPKTFPPFPQKLKFREPQREERICLVTTNFQTKSMSSMVSDTSCTFPSGDGIFWKHWIQTKDGQCGSPLVSTRDGFIVGIHSASNFTNTNNYFTSVPKNFMELLTNQEAQQWVSGWRLNADSVLWGGHKVFMVKPEEPFQPVKEATQL [D91T], the “area with substrate ENLYFDS” value stood at 0.0915, the “area with substrate ENLYFFS” value is 0.0676, the “area with substrate ENLYFIS” value was 0.0466 and the “area with substrate ENLYFMS” value worked out at 0.0578. Further, the “area with substrate ENLYFPS” value worked out at 0.0883, the “area with substrate ENLYFTS” value stood at 0.0547 and the “area with substrate ENLYFWS” value was found to be 0.0658.
As for MGESLFKGPRDYNPISSSICHLTNESDGHTTSLYGIGFGPFIITNKHLFRRNNGTLVVQSLHGVFKVKDTTTLQQHLVDGRDMIIIRMPKDFPPFPQKLKFREPQREERICLVTTNFQTKSMSSMVSDTSCTFPSGDGIFWKHWIQTKDGQCGSPLVSTRDGFIVGIHSASNFTNTNNYFTSVPKNFMELLTNQEAQQWVSGWRLNADSVLWGGHKVFMVKPEEPFQPVKEATQY [L235Y], the “area with substrate ENLYFES” value was found to be 0.0291, the “area with substrate ENLYFFS” value was 0.0598, the “area with substrate ENLYFIS” value was determined as 0.0603 and the “area with substrate ENLYFNS” value is 0.0734. Also, the “area with substrate ENLYFPS” value stood at 0.0646.
As to MGESLFKGPRDYNPISSSICHLTNESDGHTTSLYGIGFGPFIITNKHLFRRNNGTLVVQSLHGVFKVKDTTTLQQHLVDGRDMIIIRMPKDFPPFPQKLKFREPQREERICLVTTNFQTKSMSSMVSDTSCTFPSGDGIFWKHWIQTKDGQCGSPLVSTRDGFIVGIHSASNFTNTNNYFTSVPKNFMELLTNQEAQQWVSGWRLNADSVLWGGHKVFMVKPEEPFQRVKEATQL [P228R], the “area with substrate ENLYFDS” value turned out to be 0.0556, the “area with substrate ENLYFES” value worked out at 0.0888, the “area with substrate ENLYFFS” value was determined as 0.055 and the “area with substrate ENLYFHS” value worked out at 0.0571. For the same variant, the “area with substrate ENLYFIS” value was 0.0491, the “area with substrate ENLYFKS” value was 0.0548, the “area with substrate ENLYFNS” value was found to be 0.0537 and the “area with substrate ENLYFPS” value is 0.071. The “area with substrate ENLYFSS” value amounted to 0.0577, the “area with substrate ENLYFTS” value was 0.0629, the “area with substrate ENLYFVS” value is 0.0571 and the “area with substrate ENLYFWS” value worked out at 0.0556. For the same variant, the “area with substrate ENLYFYS” value turned out to be 0.069.
As for MGESLFKGPRDYNPISSSICHLTNESDGHTTSLYGIGFGPFIITNKHLFRRNNGTLVVQSLHGVFKVKDTTTLQQHLVDGRDMIIIRMPKDFPPFPQKLKFREPQREERICLVTTNPQTKSMSSMVSDTSCTFPSGDGIFWKHWIQTKDGQCGSPLVSTRDGFIVGIHSASNFTNTNNYFTSVPKNFMELLTNQEAQQWVSGWRLNADSVLWGGHKVFMVKPEEPFQPVKEATQL [F117P], the “area with substrate ENLYFES” value came out at 0.0758, the “area with substrate ENLYFHS” value worked out at 0.0804, the “area with substrate ENLYFIS” value is 0.0594 and the “area with substrate ENLYFMS” value was found to be 0.0747. The “area with substrate ENLYFNS” value worked out at 0.0585, the “area with substrate ENLYFPS” value worked out at 0.0485, the “area with substrate ENLYFRS” value amounted to 0.0542 and the “area with substrate ENLYFSS” value was determined as 0.0614. The “area with substrate ENLYFVS” value was 0.0481 and the “area with substrate ENLYFWS” value is 0.1.
In the case of MGESLFKGPRDYNPISSSICHLTNESDGHTTSLYGIGFGPFIITNKHLFRRNNGTLVVQSLHGVFKVKDTTTLQQHLVDGRDMIIIRMPKDFPPFPQKLKFREPQREERICLVTTNFQTKSMSSMVSDTSCTFPSGDGIFWKHWIQTKDGQCGSPLVSTRDGFIVGIHSASNFTNTNNYFTSVPKNFMELLTNQEAQQWVSGWRLNADNVLWGGHKVFMVKPEEPFQPVKEATQL [S209N], the “area with substrate ENLYFDS” value was found to be 0.0429, the “area with substrate ENLYFES” value is 0.0722, the “area with substrate ENLYFFS” value was found to be 0.0708 and the “area with substrate ENLYFHS” value is 0.0627. The “area with substrate ENLYFIS” value amounted to 0.0564, the “area with substrate ENLYFMS” value came out at 0.0909, the “area with substrate ENLYFNS” value came out at 0.0682 and the “area with substrate ENLYFTS” value worked out at 0.0355. Also, the “area with substrate ENLYFWS” value was found to be 0.0395 and the “area with substrate ENLYFYS” value is 0.07.
